# T1: recombinant human APRIL (human, UniProt O75888 105-250, limits assumed)
# T1 sequence (looked up): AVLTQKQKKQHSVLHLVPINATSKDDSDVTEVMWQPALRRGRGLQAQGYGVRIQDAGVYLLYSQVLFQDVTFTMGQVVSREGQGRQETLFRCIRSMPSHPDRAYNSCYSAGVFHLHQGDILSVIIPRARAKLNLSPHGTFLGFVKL
# B1: CTLA-4 WT ECD 1 (G4S)2 Fc (G4S)2 TACI 516 (Fc fusion)
# chain: [about 120 residues with changes skipped]GGGGSGGGGSEPKSSDKTHTCPPCPAPEAEGAPSVFLFPPKPKDTLMISRTPEVTCVVVDVSHEDPEVKFNWYVDGVEVHNAKTKPREEQYNSTYRVVSVLTVLHQDWLNGKEYKCKVSNKALPAPIEKTISKAKGQPREPQVYTLPPSRDELTKNQVSLTCLVKGFYPSDIAVEWESNGQPENNYKTTPPVLDSDGSFFLYSKLTVDKSRWQQGNVFSCSVMHEALHNHYTQKSLSLSPGGGGGSGGGGSVAMRSCPEEQYWDPLLGTCMSCKTICNHQSQRTCAAFCRSLSCRKEQGKFYDHLLRDCISCASICGQHPKQCAYFCENKLRS
# B2: CTLA 4 668 (G4S)2 Fc (G4S)2 TACI 516 (Fc fusion)
# chain: [about 120 residues with changes skipped]GGGGSGGGGSEPKSSDKTHTCPPCPAPEAEGAPSVFLFPPKPKDTLMISRTPEVTCVVVDVSHEDPEVKFNWYVDGVEVHNAKTKPREEQYNSTYRVVSVLTVLHQDWLNGKEYKCKVSNKALPAPIEKTISKAKGQPREPQVYTLPPSRDELTKNQVSLTCLVKGFYPSDIAVEWESNGQPENNYKTTPPVLDSDGSFFLYSKLTVDKSRWQQGNVFSCSVMHEALHNHYTQKSLSLSPGGGGGSGGGGSVAMRSCPEEQYWDPLLGTCMSCKTICNHQSQRTCAAFCRSLSCRKEQGKFYDHLLRDCISCASICGQHPKQCAYFCENKLRS
# B3: CTLA-4 92 Fc K + BCMA 357 Fc H (Fc fusion)
# chain 1: KAMHVAQPAVVLASSRGIASFVCEYASPWKATEVRVTVLRQADSQVTEVCAATYMMGSELTFPDDSICTGTSSGNQVNLTIRGLRAMDTGLYICKVEQMYPPPYLLGIGNGTQIYVIDPEPCPDSDGSGGGGSEPKSSDKTHTCPPCPAPEAEGAPSVFLFPPKPKDTLMISRTPEVTCVVVDVSHEDPEVKFNWYVDGVEVHNAKTKPREEQYNSTYRVVSVLTVLHQDWLNGKEYKCKVSNKALPAPIEKTISKAKGQPREPQVYTLPPCREEMTKNQVSLWCLVKGFYPSDIAVEWESNGQPENNYKTTPPVLDSDGSFFLYSKLTVDKSRWQQGNVFSCSVMHEALHNHYTQKSLSLSPG
# chain 2: LQMAGQCSQNEYFDSLLYACIPCQLRCSSNTPPLTCQRYCNASVTNSVKGTNAGSGGGGS[human IgG1 Fc with changes skipped]
# B4: CTLA-4 113 Fc K/BCMA 357 Fc H (Fc fusion)
# chain 1: KAMHVAQPAVVLASSRGIASFVCEYASPWKATEVRVTVLRQADSQVTEVCAATYMMGSELTFPDDSICTGTSSGNQVNLTIRGLRAMDTGLYICKVEQMYPPPYLLGIGNGTQIYVIDPEPCPDSDGSGGGGSEPKSSDKTHTCPPCPAPEAEGAPSVFLFPPKPKDTLMISRTPEVTCVVVDVSHEDPEVKFNWYVDGVEVHNAKTKPREEQYNSTYRVVSVLTVLHQDWLNGKEYKCKVSNKALPAPIEKTISKAKGQPREPQVYTLPPCREEMTKNQVSLWCLVKGFYPSDIAVEWESNGQPENNYKTTPPVLDSDGSFFLYSKLTVDKSRWQQGNVFSCSVMHEALHNHYTQKSLSLSPG
# chain 2: LQMAGQCSQNEYFDSLLYACIPCQLRCSSNTPPLTCQRYCNASVTNSVKGTNAGSGGGGS[human IgG1 Fc with changes skipped]
# Legend:
# recombinant human APRIL = molecular target: T1, recombinant human APRIL; test: cell-based or functional assay
# recombinant human BAFF = recombinant human BAFF (human, UniProt Q9Y275 in part); test: cell-based or functional assay
# Chain of recombinant human BAFF (Q9Y275 134-285 limits assumed): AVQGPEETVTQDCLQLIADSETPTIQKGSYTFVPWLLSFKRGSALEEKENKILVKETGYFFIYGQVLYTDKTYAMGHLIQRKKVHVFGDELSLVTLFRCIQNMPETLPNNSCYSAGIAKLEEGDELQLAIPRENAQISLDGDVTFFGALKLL
Binder,IC50 (nM) APRIL (recombinant human APRIL),IC50 APRIL (Δ Parental vTD) (recombinant human APRIL),IC50 (nM) BAFF (recombinant human BAFF),IC50 BAFF (Δ Parental vTD) (recombinant human BAFF)
B1,19.1 nM,2.1 ratio,9.46 nM,3.7 ratio
B2,20 nM,2.2 ratio,10.1 nM,3.9 ratio
B3,4.19 nM,–,5.38 nM,–
B4,5.2 nM,–,5.15 nM,–
